The source of these data is PMC4336329 (PLoS ONE, 2015).

In all, about 310,000 compounds went through this assay and about 14,000 (4.5%) showed an effect of 50% or more. Effects have a minus sign here. This is one part of the list.
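Further: peak tail current of the secondary pulse compared with the same well before compound.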

human ether-à-go-go-related gene (hERG) potassium channel, sequence (Q12809 whole entry, looked up): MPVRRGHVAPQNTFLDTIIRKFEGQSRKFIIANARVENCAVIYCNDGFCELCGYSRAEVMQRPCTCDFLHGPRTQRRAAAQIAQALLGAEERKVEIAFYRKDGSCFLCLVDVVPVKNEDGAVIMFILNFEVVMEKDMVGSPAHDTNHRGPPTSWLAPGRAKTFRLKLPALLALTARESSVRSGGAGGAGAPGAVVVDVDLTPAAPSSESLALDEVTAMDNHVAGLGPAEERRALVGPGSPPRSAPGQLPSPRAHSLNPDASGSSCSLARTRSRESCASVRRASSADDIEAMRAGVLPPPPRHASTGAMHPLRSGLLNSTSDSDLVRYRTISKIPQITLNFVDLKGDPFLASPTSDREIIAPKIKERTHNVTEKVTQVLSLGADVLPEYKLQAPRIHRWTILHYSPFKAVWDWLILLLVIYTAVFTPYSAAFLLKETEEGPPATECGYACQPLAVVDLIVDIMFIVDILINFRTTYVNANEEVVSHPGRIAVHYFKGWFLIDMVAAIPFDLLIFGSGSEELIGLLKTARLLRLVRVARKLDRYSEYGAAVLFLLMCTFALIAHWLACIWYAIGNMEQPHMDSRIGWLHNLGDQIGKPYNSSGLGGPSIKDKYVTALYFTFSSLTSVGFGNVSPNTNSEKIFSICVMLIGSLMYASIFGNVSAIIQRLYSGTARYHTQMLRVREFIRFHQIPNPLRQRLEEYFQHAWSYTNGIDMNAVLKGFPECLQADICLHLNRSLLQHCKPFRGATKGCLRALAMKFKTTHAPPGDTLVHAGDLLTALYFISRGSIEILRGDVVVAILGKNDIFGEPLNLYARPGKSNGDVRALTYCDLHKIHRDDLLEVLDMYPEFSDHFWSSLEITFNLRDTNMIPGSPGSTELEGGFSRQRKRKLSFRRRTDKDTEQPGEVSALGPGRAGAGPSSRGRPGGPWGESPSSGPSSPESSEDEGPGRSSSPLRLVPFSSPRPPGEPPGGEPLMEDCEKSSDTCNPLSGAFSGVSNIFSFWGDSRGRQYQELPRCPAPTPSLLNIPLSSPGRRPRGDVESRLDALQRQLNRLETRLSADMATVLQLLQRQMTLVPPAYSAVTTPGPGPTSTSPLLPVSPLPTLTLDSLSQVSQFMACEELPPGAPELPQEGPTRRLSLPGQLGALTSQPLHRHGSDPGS

This assay has as its target human ether-à-go-go-related gene (hERG) potassium channel (human, UniProt Q12809). Kind of assay: primary screen, population patch clamp on CHO cells stably expressing hERG.
As for `O=C(O)[C@@H]1C[C@H]1[C@@H](NP(=O)(c1ccccc1)c1ccccc1)c1ccccc1`, the “hERG current change (%, negative = inhibition) at 10uM” value was 2.04%.

Turning to `CCOC(=O)c1cc2sc(C)cc2n1CC(=O)N1CCN(C(=O)c2ccco2)CC1`, the “hERG current change (%, negative = inhibition) at 10uM” value is given as -8.61%.

Turning to `CCCc1cc(=O)oc2cc(C)c(CN3CCCC3)c(O)c12`, the “hERG current change (%, negative = inhibition) at 10uM” value is listed as -8.21%.

Turning to `COc1cccc(C2CC(c3ccc(Cl)cc3)n3nc(N)nc3N2)c1` (stereo not drawn), the “hERG current change (%, negative = inhibition) at 10uM” value is -6.36%.

In the case of `Cc1nnc(SCC2=C(C(=O)[O-])N3C(=O)[C@@H](NC(=O)Cn4cnnn4)[C@H]3SC2)s1.[Na+]`, the “hERG current change (%, negative = inhibition) at 10uM” value turned out to be 15.9%.

As to `COC(=O)C(Cc1c[nH]c2ccccc12)NC(=O)C(=O)c1c[nH]c2ccccc12` (stereo not drawn), the “hERG current change (%, negative = inhibition) at 10uM” value was -14.9%.

Consider `CCOC(=O)c1[nH]nc(C(=O)c2ccc(Br)cc2)c1O`, for which the “hERG current change (%, negative = inhibition) at 10uM” value was found to be 7.67%.

On to `O=C(Nc1cccc(C(=O)N2CCCC2)c1)c1ccccc1`, for which the “hERG current change (%, negative = inhibition) at 10uM” value is reported as 2.2%.

In the case of `COc1ccc(NC(=S)N2CCC(N(C)CCN3CCOCC3)CC2)cc1`, the “hERG current change (%, negative = inhibition) at 10uM” value is -1.98%.

As for `Cc1ccc(-c2cc(C(=O)Nc3cccc(S(=O)(=O)N(C)C)c3)c3ccccc3n2)o1`, the “hERG current change (%, negative = inhibition) at 10uM” value stood at 13.4%.

Turning to `Cc1cccc(N2CCN(C3=NC(=O)C(=C4CCCCC4)S3)CC2)c1`, the “hERG current change (%, negative = inhibition) at 10uM” value came out at 1.64%.

As to `O=C(NCCN1CCOCC1)c1cc(=O)[nH]c2ccc(Br)cc12`, the “hERG current change (%, negative = inhibition) at 10uM” value came to 7.07%.

Turning to `COC(=O)C1=C(N)Oc2cc(C)n(CC3CCCO3)c(=O)c2C1c1ccc(Cl)cc1` (stereo not drawn), the “hERG current change (%, negative = inhibition) at 10uM” value was -8.41%.

Turning to `Cc1cccc(NC(=O)C2CCCN2S(=O)(=O)c2ccc(Cl)cc2)n1` (stereo not drawn), the “hERG current change (%, negative = inhibition) at 10uM” value is listed as -11.5%.

With `COCCN(CCOC)C(=O)c1ccc(NS(=O)(=O)c2ccc3c(c2)OCCO3)cc1`, the “hERG current change (%, negative = inhibition) at 10uM” value is 10.4%.

With `CC(C)(C)OC(=O)COc1cc(OCC(=O)OC(C)(C)C)c2c(=O)cc(-c3ccccc3)oc2c1`, the “hERG current change (%, negative = inhibition) at 10uM” value is -15%.

For `COc1ccc(NC(=O)N2CCN(c3cccc(C(F)(F)F)c3)CC2)cc1`, the “hERG current change (%, negative = inhibition) at 10uM” value was -1.89%.

As for `O=C(CN1C(=O)c2ccccc2C1=O)Nc1ccc(S(=O)(=O)N2CCOCC2)cc1`, the “hERG current change (%, negative = inhibition) at 10uM” value was -16.9%.

For `CCN(CC)S(=O)(=O)c1cccc(C(=O)Nc2cc(C)on2)c1`, the “hERG current change (%, negative = inhibition) at 10uM” value amounted to 4.77%.

In the case of `Cc1ccc(S(=O)(=O)N(C)c2cc(S(=O)(=O)Nc3ccncc3)c(C)cc2C)cc1`, the “hERG current change (%, negative = inhibition) at 10uM” value is listed as -2.16%.

As to `Cc1cc(C(=O)NNC(=O)Nc2ccccc2)no1`, the “hERG current change (%, negative = inhibition) at 10uM” value was found to be 2.51%.

In the case of `CCOc1cccc(-c2nn(-c3ccccc3)cc2/C=C(/C#N)C(=O)NCCCn2ccnc2)c1`, the “hERG current change (%, negative = inhibition) at 10uM” value was -36.1%.

`COc1ccc(C(CNC(=O)CCNS(=O)(=O)c2ccc(C)cc2)N2CCOCC2)cc1` (stereo not drawn): the “hERG current change (%, negative = inhibition) at 10uM” value was -19.3%.

`CCOC(=O)N1CCC(N2C(=O)c3ccc(C(=O)Nc4ccc(F)cc4F)cc3C2=O)CC1`: the “hERG current change (%, negative = inhibition) at 10uM” value was determined as 6.75%.

Regarding `COC(=O)c1ccc(OCC(=O)NC(C)(C)C)cc1`, the “hERG current change (%, negative = inhibition) at 10uM” value came to 8.24%.

Take `COc1cccc(/C=N/NC(=O)c2[nH]c(C)c(C(=O)N/N=C/c3cccc(OC)c3)c2C)c1`: the “hERG current change (%, negative = inhibition) at 10uM” value was -6.59%.

Turning to `COc1ccc(NC(=O)NCCC2=CCCCC2)cc1`, the “hERG current change (%, negative = inhibition) at 10uM” value came out at 8.17%.

`COc1cc(C(C)=O)ccc1OC(C)C(=O)Nc1ccc(S(=O)(=O)N2CCCC2)cc1` (stereo not drawn): the “hERG current change (%, negative = inhibition) at 10uM” value came out at 9.66%.

Turning to `Cc1cc(F)c(F)c(C(=O)N2CCN(C)CC2)c1Cl`, the “hERG current change (%, negative = inhibition) at 10uM” value is recorded as 18.3%.

As to `CCCn1c(SCC(=O)Nc2ccccc2-c2ccccc2)nnc1-c1ccoc1C`, the “hERG current change (%, negative = inhibition) at 10uM” value is -26%.

Consider `O=C(O)/C=C\C(=O)Nc1ccc(N2CCN(c3cccc(Cl)c3)CC2)cc1`, for which the “hERG current change (%, negative = inhibition) at 10uM” value came out at 10.2%.

For the molecule `COc1ccccc1Cn1c(=S)[nH]c2cc(C(=O)N3CCC(C(N)=O)CC3)ccc2c1=O`, the “hERG current change (%, negative = inhibition) at 10uM” value is reported as 27.4%.

As for `Fc1cccc(NC(=S)NC2CCCCCCC2)c1`, the “hERG current change (%, negative = inhibition) at 10uM” value came to 15.9%.

In the case of `Cc1cccc(-n2c(O)c(/C=N/N3CCOCC3)c(=O)[nH]c2=S)c1`, the “hERG current change (%, negative = inhibition) at 10uM” value is -8.45%.

In the case of `Cc1ccc(/C=N/NC(=O)Cc2c(F)cccc2Cl)s1`, the “hERG current change (%, negative = inhibition) at 10uM” value is listed as -4.48%.

As to `Cc1ccc(C(=O)N/C(=C\c2cccs2)C(=O)NCC2CCCO2)cc1C` (stereo not drawn), the “hERG current change (%, negative = inhibition) at 10uM” value was found to be 6.35%.

On to `O=C(c1cnn(C(=O)c2ccccc2)c1)c1ccccc1O`, for which the “hERG current change (%, negative = inhibition) at 10uM” value was -14.8%.

`O=C(c1ccc(-c2ccc(Cl)cc2)o1)N1CCN(S(=O)(=O)c2cccs2)CC1`: the “hERG current change (%, negative = inhibition) at 10uM” value worked out at 1.39%.

On to `O=C(NCC(=O)N(c1ccccc1F)C(C(=O)NC1CCCC1)c1ccncc1)c1ccco1` (stereo not drawn), for which the “hERG current change (%, negative = inhibition) at 10uM” value amounted to 3.52%.

`S=C(Nc1ccc(-c2nc3ccccc3[nH]2)cc1)Nc1cccnc1`: the “hERG current change (%, negative = inhibition) at 10uM” value is -40.7%.

`O=C(Nc1ccon1)c1cccc(C(F)(F)F)c1`: the “hERG current change (%, negative = inhibition) at 10uM” value turned out to be 0.626%.

For `Cc1nnc(SCC(=O)NCCOc2ccc(Cl)cc2)n1-c1ccccc1`, the “hERG current change (%, negative = inhibition) at 10uM” value is -24.7%.
